The record followed here is paper PMC11045787, “Disordered clock protein interactions and charge blocks turn an hourglass into a persistent circadian oscillator” (Nature Communications, 2024).

Residue numbers refer to the chain shown, from its start. No constants are given. Whether binding was seen depends on the method and setting. Binding seen in cells or lysates may run through a third protein. Some results given as binding are weak or reduced against the parent protein; the word gives no strength. Sequences can lack the tags named with a protein.

The target in assay [1] is T1, FRQ^RR/HH (RR783HH, VHF-tagged) (N. crassa) (UniProt P19970).
T1 sequence: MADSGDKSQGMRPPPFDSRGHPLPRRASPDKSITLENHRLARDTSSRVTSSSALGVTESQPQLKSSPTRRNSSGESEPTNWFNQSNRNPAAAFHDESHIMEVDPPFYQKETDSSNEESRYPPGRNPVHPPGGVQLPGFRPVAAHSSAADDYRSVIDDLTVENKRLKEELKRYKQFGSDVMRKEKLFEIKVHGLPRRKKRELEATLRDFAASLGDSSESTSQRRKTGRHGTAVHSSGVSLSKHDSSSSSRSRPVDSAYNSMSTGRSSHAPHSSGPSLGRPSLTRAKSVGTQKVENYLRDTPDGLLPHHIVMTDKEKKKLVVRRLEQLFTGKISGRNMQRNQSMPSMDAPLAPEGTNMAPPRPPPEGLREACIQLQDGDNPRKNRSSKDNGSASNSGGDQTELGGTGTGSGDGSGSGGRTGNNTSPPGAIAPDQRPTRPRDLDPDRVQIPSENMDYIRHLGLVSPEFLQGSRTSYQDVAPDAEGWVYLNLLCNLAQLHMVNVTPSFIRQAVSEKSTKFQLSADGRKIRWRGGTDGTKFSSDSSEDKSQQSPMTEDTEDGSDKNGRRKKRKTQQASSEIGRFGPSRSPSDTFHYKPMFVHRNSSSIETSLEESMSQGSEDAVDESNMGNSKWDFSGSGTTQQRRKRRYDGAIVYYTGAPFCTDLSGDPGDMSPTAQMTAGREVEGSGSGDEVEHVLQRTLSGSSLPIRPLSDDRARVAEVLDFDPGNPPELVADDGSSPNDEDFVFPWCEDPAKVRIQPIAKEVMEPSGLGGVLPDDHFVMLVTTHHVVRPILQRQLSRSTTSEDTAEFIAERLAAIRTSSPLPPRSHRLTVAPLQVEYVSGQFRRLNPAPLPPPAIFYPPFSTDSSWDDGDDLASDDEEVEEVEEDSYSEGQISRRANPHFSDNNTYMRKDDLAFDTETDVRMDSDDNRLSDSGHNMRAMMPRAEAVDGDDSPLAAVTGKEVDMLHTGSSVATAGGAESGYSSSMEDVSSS
Description: co-IP; anti-Flag (one replicate also anti-V5) co-immunoprecipitation of VHF-tagged FRQ from N. crassa lysates; overnight at 4 °C, 50 mM HEPES pH 7.4, 137 mM NaCl, 10% glycerol, 0.4% NP-40 alternative; blot with anti-FRH.

Assay [2] deals with T2, FRQ^VHF (wild-type FREQUENCY with V5-10-His-3-Flag tag) (N. crassa) (UniProt P19970).
T2 sequence: T1 sequence with H783R, H784R
The assay is described as above.

Assay [3] addresses T3, FRQ^RR/AA (RR783AA, VHF-tagged) (N. crassa) (UniProt P19970).
T3 sequence: T1 sequence with H783A, H784A
The assay is described as above.

In assay [4] the target is T2, FRQ^VHF (wild-type FREQUENCY with V5-10-His-3-Flag tag) (N. crassa). Description: co-IP; co-immunoprecipitation on VHF-tagged FRQ from lysates of N. crassa strains carrying short-ck1a^HA; overnight at 4 °C, 50 mM HEPES pH 7.4, 137 mM NaCl, 10% glycerol, 0.4% NP-40 alternative; blots with anti-FRH and anti-HA.
Assay [5] has as its target T4, FRQ^KKK/AAA (KKK315AAA, VHF-tagged) (N. crassa) (UniProt P19970).
T4 sequence: T1 sequence with K315A, K316A, K317A, H783R, H784R
Described as above.

B1: FRQ-interacting RNA Helicase (FRH), endogenous (protein, UniProt Q1K502 1-1106)
chain: MDDLFEVFEEQPRAQKKRKASPDVEMADGAAAAAPVANAAAAVTHPQAQAAPAPQKDNIDNNDNNNNNTTTSAVQPTIPNGDAAAAADDVQSPQSPHGLGDNKRRKKTDEAEPIMTDAFQTAESREVTGAQGFAPTEGESIVLSHNIQHQVALPPDLDYEYIPLSEHKPPAEPARTYSFKLDPFQALSVASIEREESVLVSAHTSAGKTVVAEYAIAQCLKKNQRVIYTSPIKALSNQKYRDFQAEFGDVGLMTGDVTINPTASCLVMTTEILRSMLYRGSEIMREVAWVVFDEIHYMRDKIRGVVWEETIILLPDKVRYVFLSATIPNAFQFAEWIAKIHRQACHVVYTDFRPTPLQNYFFPAGGKGILLIVDEKGNFKENNFNQAMAMIEEKKGTDSNDWSAKQKGKGKNKKTNKGGEAADEKADIAKIIKMILKKNFQPVIVFNFSKRECEQMALASSSMKFNAPDEENMVNKVFENALASLSEDDKNLPQISNILPLLRKGIGVHHSGLLPILKETIEILFQEGLIKVLFATETFSIGLNMPARTVVFTQVTKWDGQQRRPLTSSEYIQMAGRAGRRGLDDRGIVIMMVDDKLEPETARAIVVGNQDKLNSAFHLGYNMVLNLLRIEAISPEYMLERCFFQFQNAASVPQLERELISLQQERDAIIIPDESIVKDYYGVRQQLEEYNKDMVFVIQHPQNCLGFFQEGRLIHIKSPSGVDYGWGVLIKHIQRQTPKNGQPPYPEQESYVLDVLLKVSGDFNPKTRGEGPMPEGIMPAGKDSKNARWEVVPCLLNCLRALGQLRVFLPKRLESADEKDGVGKAVDEISRRFPDGIPILDPMENMGINDDSFKKLLRKIEVLESRLVANPLHNSPLLVELWNQYSLKMQLGEQIKEKKKAIARAHSVAQLDELKSRKRVLRRLGFINDAEVVQMKARVACEISSTEGHELLLAELLFNRFFNELSPEICACILSCFIFDEKIETQALKEELAKPFREIQAQARIIAKVSAESKLDVNEDEYVQSLKWQLMETVLAWAQGRPFSEICKMTNVYEGSLIRLFRRLEELLRQMAEAARVMGSEELKDKFELSLSKIRRDIVSFNSLYL
In the case of B1, the binding result is listed as “binds” in assay [1]; “binds” in assay [2]; “no binding” in assay [3]; “binds” in assay [4]; “binds” in assay [5].
